{"source": "paper PMC4336329", "about": "(PLoS ONE, 2015)", "note": "Out of some 310,000 compounds screened, about 14,000 (4.5%) showed an effect of 50% or more. Effects have a minus sign here. The list shows a part of the results.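 Also: peak tail current of the secondary pulse compared with the same well before compound.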"}
{"target": "human ether-à-go-go-related gene (hERG) potassium channel (human, UniProt Q12809)", "sequence (Q12809 whole entry, looked up)": "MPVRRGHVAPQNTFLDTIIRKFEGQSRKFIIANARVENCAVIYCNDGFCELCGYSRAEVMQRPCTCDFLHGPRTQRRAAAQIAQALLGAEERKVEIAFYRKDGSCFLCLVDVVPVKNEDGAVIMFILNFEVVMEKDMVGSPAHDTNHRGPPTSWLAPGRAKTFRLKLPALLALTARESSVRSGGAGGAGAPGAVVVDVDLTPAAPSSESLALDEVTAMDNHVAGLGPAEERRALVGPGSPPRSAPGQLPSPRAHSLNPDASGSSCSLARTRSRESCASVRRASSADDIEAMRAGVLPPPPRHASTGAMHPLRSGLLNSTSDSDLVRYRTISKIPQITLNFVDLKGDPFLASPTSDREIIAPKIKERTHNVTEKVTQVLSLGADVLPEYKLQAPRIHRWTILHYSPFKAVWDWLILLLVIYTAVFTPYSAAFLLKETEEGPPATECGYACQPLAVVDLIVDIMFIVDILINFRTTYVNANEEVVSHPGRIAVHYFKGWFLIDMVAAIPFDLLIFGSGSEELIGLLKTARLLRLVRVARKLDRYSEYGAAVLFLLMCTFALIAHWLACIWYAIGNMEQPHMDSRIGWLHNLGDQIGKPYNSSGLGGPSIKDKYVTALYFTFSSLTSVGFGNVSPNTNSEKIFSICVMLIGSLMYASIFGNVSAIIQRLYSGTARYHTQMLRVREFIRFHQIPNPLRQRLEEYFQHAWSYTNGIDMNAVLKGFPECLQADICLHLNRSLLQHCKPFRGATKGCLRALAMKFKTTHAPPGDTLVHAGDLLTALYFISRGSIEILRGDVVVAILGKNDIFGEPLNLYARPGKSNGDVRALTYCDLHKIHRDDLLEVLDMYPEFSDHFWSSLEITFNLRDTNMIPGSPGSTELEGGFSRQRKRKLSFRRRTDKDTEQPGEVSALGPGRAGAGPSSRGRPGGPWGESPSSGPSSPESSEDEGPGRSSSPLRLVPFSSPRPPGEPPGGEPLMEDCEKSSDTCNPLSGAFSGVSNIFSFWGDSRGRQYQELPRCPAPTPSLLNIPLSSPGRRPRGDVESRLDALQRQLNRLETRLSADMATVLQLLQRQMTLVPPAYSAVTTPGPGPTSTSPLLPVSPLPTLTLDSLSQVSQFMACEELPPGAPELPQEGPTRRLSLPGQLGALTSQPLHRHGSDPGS", "assay": "primary screen, population patch clamp on CHO cells stably expressing hERG", "units": {"hERG current change (%, negative = inhibition) at 10uM": "%"}}
{"compound": "COc1ccc(N2CCN(C(=O)CCc3ccccc3OC)CC2)cc1", "hERG current change (%, negative = inhibition) at 10uM": -17}
{"compound": "COc1ccccc1OCC(=O)Nc1ccc2c(c1)C(=O)N(CC1CCCO1)C2=O", "note": "(stereo not shown)", "hERG current change (%, negative = inhibition) at 10uM": -19.3}
{"compound": "Cc1nnc(SCc2ccon2)n1-c1ccccc1", "hERG current change (%, negative = inhibition) at 10uM": 15.6}
{"compound": "CCCn1c(O)c(N=NC(=O)CNC(=O)c2ccncc2)c2ccccc21", "hERG current change (%, negative = inhibition) at 10uM": -12.6}
{"compound": "O=C(COC(=O)CN1C(=O)NC2(CCCC2)C1=O)Nc1ccccc1C(F)(F)F", "hERG current change (%, negative = inhibition) at 10uM": 7.69}
{"compound": "Br.Cn1ccnc1SCC(=O)c1ccc(O)cc1", "hERG current change (%, negative = inhibition) at 10uM": 17.1}
{"compound": "Cc1ccc(C)c(NC(=O)CN(C)C(=O)c2cc(-c3cccs3)nn2-c2ccccc2)c1", "hERG current change (%, negative = inhibition) at 10uM": -11}
{"compound": "CSc1ccccc1C(=O)NCc1ccc2c(c1)OCO2", "hERG current change (%, negative = inhibition) at 10uM": -17.2}
{"compound": "CNC(=O)COC(=O)C1CCN(S(=O)(=O)c2ccc3c(c2)OCCO3)CC1", "hERG current change (%, negative = inhibition) at 10uM": 11.7}
{"compound": "CCOc1ccc(Cl)cc1/C=N/NC(N)=O", "hERG current change (%, negative = inhibition) at 10uM": -22.2}
{"compound": "C=CCN1c2ccc(Br)cc2C(=O)CS1(=O)=O", "hERG current change (%, negative = inhibition) at 10uM": -2.52}
{"compound": "O=C(O)C(=O)O.c1ccc(COc2ccc(OCCN3CCCC3)cc2)cc1", "hERG current change (%, negative = inhibition) at 10uM": -60.3}
{"compound": "CN(C)CCCNC(=O)c1cc(C(=O)C2CCCCC2)c[nH]1", "hERG current change (%, negative = inhibition) at 10uM": -3.99}
{"compound": "Cc1ccc(NC(=O)COc2cccc3c2OC(C)(C)C3)c(O)c1", "hERG current change (%, negative = inhibition) at 10uM": -18.9}
{"compound": "CCN(CC)CCNC(=O)Cc1nn(CC)c(=O)c2ccccc12.Cl", "hERG current change (%, negative = inhibition) at 10uM": -13.3}
{"compound": "Cc1ccc(S(=O)(=O)Nc2ccccc2F)cc1C(=O)N1CCN(c2ccccc2O)CC1", "hERG current change (%, negative = inhibition) at 10uM": -22.5}
{"compound": "CCC(C)[C@H]1CN=C(N)N1CCc1cc(C(F)(F)F)cc(C(F)(F)F)c1", "note": "(stereo partly shown)", "hERG current change (%, negative = inhibition) at 10uM": -10.4}
{"compound": "O=C(O)c1ccc(/C=N/Nc2nnnn2-c2ccccc2)cc1", "hERG current change (%, negative = inhibition) at 10uM": 14.4}
{"compound": "O=C(Nc1ccccc1C(=O)O)/C(=C/c1ccc([N+](=O)[O-])cc1)NC(=O)c1ccc(Br)o1", "hERG current change (%, negative = inhibition) at 10uM": 24.4}
{"compound": "O=C(CCc1nc2ccccc2s1)NC1CCOC1=O", "note": "(stereo not shown)", "hERG current change (%, negative = inhibition) at 10uM": 13.7}
{"compound": "C/C(CC(=O)Nc1cc(C)ccn1)=N\\NC(=O)c1cccc(C)c1O", "hERG current change (%, negative = inhibition) at 10uM": 7.55}
{"compound": "CCN1C=C(Cc2ccccc2C)C2=C(C1)C(c1ccccc1C)C(C#N)=C(N)O2.CCO", "note": "(stereo not shown)", "hERG current change (%, negative = inhibition) at 10uM": 0.285}
{"compound": "Cc1ccc(C(=O)NC(=S)NCc2ccccc2)cc1", "hERG current change (%, negative = inhibition) at 10uM": 7.15}
{"compound": "Cc1nnc(NC(=O)CSc2nc3c(c(=O)n2CCc2ccccc2)SC(C)C3)s1", "note": "(stereo not shown)", "hERG current change (%, negative = inhibition) at 10uM": 14.2}
{"compound": "COc1cccc(C(=O)NCC2CCCN(C3CCCCC3)C2)c1OC", "note": "(stereo not shown)", "hERG current change (%, negative = inhibition) at 10uM": 6.55}
{"compound": "Cc1ccc(S(=O)(=O)Nc2ncnc3sccc23)cc1C", "hERG current change (%, negative = inhibition) at 10uM": 5.42}
{"compound": "COc1ccc(N/N=C(\\C#N)C(=N)N2CCOCC2)cc1", "hERG current change (%, negative = inhibition) at 10uM": 11.4}
{"compound": "O=C(Nc1nccs1)c1cccc(NC(=O)C(F)(F)F)c1", "hERG current change (%, negative = inhibition) at 10uM": -5.07}
{"compound": "Cc1ccc(C(=O)Nc2cccc(C(F)(F)F)c2)cc1Nc1ncnc2nc[nH]c12", "hERG current change (%, negative = inhibition) at 10uM": -60.2}
{"compound": "OC[C@@H]1CCCN1Cc1cn(-c2ccccc2)nc1-c1ccc2c(c1)OCO2", "hERG current change (%, negative = inhibition) at 10uM": -24.2}
{"compound": "Cc1cc(C)c2[nH]c(=O)c(C(c3nnnn3C(C)(C)C)N(Cc3ccco3)CC3CCCO3)cc2c1", "note": "(stereo not shown)", "hERG current change (%, negative = inhibition) at 10uM": 10.2}
{"compound": "O=C(CN1CCCC1)N1CCCc2c1c(=O)oc1ccc(OCc3ccccc3)cc21", "hERG current change (%, negative = inhibition) at 10uM": -65.6}
{"compound": "COc1ccc(S(=O)(=O)N2CCc3ccccc3C2)cc1C(=O)O", "hERG current change (%, negative = inhibition) at 10uM": 10.2}
{"compound": "COc1ccc(-c2nc3ccc(C(=O)N4CCC5(CC4)OCCO5)cc3nc2-c2ccc(OC)cc2)cc1", "hERG current change (%, negative = inhibition) at 10uM": -1.35}
{"compound": "CCOC(=O)N1CCN(C(=O)CS(=O)(=O)Cc2nc(-c3ccccc3F)oc2C)CC1", "hERG current change (%, negative = inhibition) at 10uM": -13.6}
{"compound": "Cc1ncoc1C(=O)N1CCCC(C(=O)c2cccc(C(F)(F)F)c2)C1", "note": "(stereo not shown)", "hERG current change (%, negative = inhibition) at 10uM": 1.98}
{"compound": "COc1ccc(OC2C(=O)N(Cc3ccc(F)cc3)C2c2cc(OC)c(OC)c(OC)c2)cc1", "note": "(stereo not shown)", "hERG current change (%, negative = inhibition) at 10uM": -20.1}
{"compound": "O=C(O)/C=C/C(=O)Nc1ccc(F)cc1F", "hERG current change (%, negative = inhibition) at 10uM": 9.29}
{"compound": "O=C1CCc2cc(S(=O)(=O)NCc3ccc(Cl)cc3)cc3c2N1CC3", "hERG current change (%, negative = inhibition) at 10uM": -41}
{"compound": "FC(F)(F)c1cccc(Nc2nc(N3CCCC3)nc(N3CCCC3)n2)c1", "hERG current change (%, negative = inhibition) at 10uM": 23.7}
{"compound": "CCc1ccccc1N(CC(=O)N1CCN(c2ccccc2F)CC1)S(C)(=O)=O", "hERG current change (%, negative = inhibition) at 10uM": 0.701}
{"compound": "O=C1N(c2ccccc2)c2ccccc2C1(Cc1ccncc1)Cc1ccncc1", "hERG current change (%, negative = inhibition) at 10uM": -13.5}
{"compound": "C/C(CCc1ccccc1)=N\\NC(=O)C(=O)Nc1cccc(Cl)c1", "hERG current change (%, negative = inhibition) at 10uM": 16.1}
